# Where two headings read alike, the source gives them in different places.
# Legend:
# [1] = tested on: GI-101A cells (unsorted, ALDH1+ sorted, ALDH1− sorted); assay: MTT cell viability after 4-day treatment with chemotherapeutic agents; conditions: for viability at 0.1 µM / viability at 1 µM / viability at 10 µM / viability at 100 µM / viability at 1000 µM / viability at 0.01 µM: Homo sapiens, 96 h; for viability at 1000 µM: 1 mM
# ALDH1 = assay: ALDEFLUOR assay with or without DEAB; assay type: cell-based, human; conditions: GI-101A cells
# Description: Aldehyde dehydrogenase (ALDH1) is a useful marker for isolating primitive stem cell populations including normal human mammary stem and progenitor cells as well as transformed tumor-initiating stem cells. In this example, GI-101A, MCF7, MDA-MB-231, Hs 578T, and SUM139PT breast cancer cell lines were tested for activity of the ALDH1 marker using a commercial assay to detect ALDH1 expression and thereby identify tumor stem cells (the ALDEFLUOR® assay (available from Stemcell™ Technologies, Vancouver BC, CA; see Ginestier et al. (2007) Cell Stem Cell 1(5):555-567)). […] The ALDH substrate fluoresces upon cleavage by ALDH.
# ALDEFLUOR® assay fluorescence was excited at 488 nm and fluorescence emission was detected using a standard FITC 530/30 band pass filter. […]
# To supplement the flow cytometric analysis, the presence of ALDH in GI-101A was assessed visually by fluorescence microscopy. […] Phase contrast and fluorescent images of the cells were taken using a fluorescence microscope, equipped with the appropriate filters and a digital camera, using a 100× objective.
# First an ALDEFLUOR assay was performed on GI-101 cells in the presence or absence of DEAB inhibitor as described in Example 21. […] The cells were resuspended in 400 μL it staining buffer and kept on ice until analyzed by flow cytometry.
# [2] = tested on: EMT-induced GI-101A cells; assay: Chemoresistance of EMT induced GI-101A cells, MTT; conditions: 4 days
# [3] = read-out: Cell Viability (%) Following 4-Day Treatment, ALDH1+, 0.1 μM
# [4] = read-out: Cell Viability (%) Following 4-Day Treatment, ALDH1+, 1 μM
# [5] = read-out: Cell Viability (%) Following 4-Day Treatment, ALDH1+, 10 μM
# [6] = read-out: Cell Viability (%) Following 4-Day Treatment, ALDH1+
# [7] = read-out: Cell Viability (%) Following 4-Day Treatment, ALDH1−, 0.1 μM
# [8] = read-out: Cell Viability (%) Following 4-Day Treatment, ALDH1−, 1 μM
# [9] = read-out: Cell Viability (%) Following 4-Day Treatment, ALDH1−, 10 μM
# [10] = read-out: Cell Viability (%) Following 4-Day Treatment, ALDH1−
# [11] = read-out: Cell Viability (%) Following 4-Day Treatment, Unsorted, 0.1 μM
# [12] = read-out: Cell Viability (%) Following 4-Day Treatment, Unsorted, 1 μM
# [13] = read-out: Cell Viability (%) Following 4-Day Treatment, Unsorted
smiles,measurement,setting,value
"O=c1[nH]cc(F)c(=O)[nH]1 [5-FU, 5-fluorouracil]",viability at 0.1 µM,[1]; [3],95%
same,viability at 1 µM,[1]; [4],90%
same,viability at 10 µM,[1]; [5],100%
same,viability at 100 µM,"[1]; read-out: Cell Viability (%) Following 4-Day Treatment, ALDH1+, 100 μM",75%
same,viability at 1000 µM,[1]; [6],5%
same,viability at 0.1 µM,[1]; [7],60%
same,viability at 1 µM,[1]; [8],37%
same,viability at 10 µM,[1]; [9],62%
same,viability at 100 µM,"[1]; read-out: Cell Viability (%) Following 4-Day Treatment, ALDH1−, 100 μM",35%
same,viability at 1000 µM,[1]; [10],5%
same,viability at 0.1 µM,[1]; [11],126%
same,viability at 1 µM,[1]; [12],67%
same,viability at 100 µM,"[1]; read-out: Cell Viability (%) Following 4-Day Treatment, Unsorted, 100 μM",55%
same,viability at 1000 µM,[1]; [13],5%
"N.N.O=C([O-])C1(C(=O)[O-])CCC1.[Pt+2] [Carboplatin, carboplatin]",Cell Viability (%) Following 4-Day Treatment,"[1]; ALDH1+, 0.1 μM",113%
same,Cell Viability (%) Following 4-Day Treatment,"[1]; ALDH1+, 1 μM",121%
same,Cell Viability (%) Following 4-Day Treatment,"[1]; ALDH1+, 10 μM",99%
same,Cell Viability (%) Following 4-Day Treatment,"[1]; ALDH1+, 100 μM",3%
same,Cell Viability (%) Following 4-Day Treatment,"[1]; ALDH1−, 0.1 μM",64%
same,Cell Viability (%) Following 4-Day Treatment,"[1]; ALDH1−, 1 μM",100%
same,Cell Viability (%) Following 4-Day Treatment,"[1]; ALDH1−, 10 μM",64%
same,Cell Viability (%) Following 4-Day Treatment,"[1]; ALDH1−, 100 μM",2%
same,Cell Viability (%) Following 4-Day Treatment,"[1]; Unsorted, 0.1 μM",92%
same,Cell Viability (%) Following 4-Day Treatment,"[1]; Unsorted, 1 μM",90%
same,Cell Viability (%) Following 4-Day Treatment,"[1]; Unsorted, 10 μM",93%
same,Cell Viability (%) Following 4-Day Treatment,"[1]; Unsorted, 100 μM",7%
CCN(CC)c1ccc(C=O)cc1 [DEAB],ALDH1 activity by fluorescence microscopy,ALDH1,green fluorescence that was reduced
"CC[C@@H](C(=O)[C@@H](C)[C@@H](O)[C@H](C)[C@@H]1O[C@@H]([C@@H](CC)C(=O)O)CC[C@@H]1C)[C@H]1O[C@]2(C=C[C@@H](O)[C@]3(CC[C@@](C)([C@H]4CC[C@](O)(CC)[C@H](C)O4)O3)O2)[C@H](C)C[C@@H]1C [Salinomycin, salinomycin]",chemo-resistance of EMT cells to the drug,[2],did not exhibit chemo-resistant ability
same,viability at 0.01 µM,[1]; [6],54%
same,viability at 0.1 µM,[1]; [3],55%
same,viability at 1 µM,[1]; [4],66%
same,viability at 10 µM,[1]; [5],0%
same,viability at 0.01 µM,[1]; [10],23%
same,viability at 0.1 µM,[1]; [7],18%
same,viability at 1 µM,[1]; [8],42%
same,viability at 10 µM,[1]; [9],0%
same,viability at 0.01 µM,[1]; [13],36%
same,viability at 0.1 µM,[1]; [11],41%
same,viability at 1 µM,[1]; [12],66%
same,viability at 10 µM,"[1]; read-out: Cell Viability (%) Following 4-Day Treatment, Unsorted, 10 μM",0%

# — patent publication US20140087362A1 (priority 2012, published 2014)
